The other results are listed elsewhere or left out. Rule as the data show it: active = 3.2 or more and inactive = the rest. Only a few entries rise above the background.
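Also: displayed peptides selected on beads carrying the immobilized SH2 domain, with library peptides lacking any tyrosine serving as negative controls.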

One assay addresses SHP2 C-SH2 domain E139D. Description: enrichment score (SH2-bound / input frequency) (ratio); bacterial display of known human phosphotyrosine sites (pTyr-Var adds point mutants) read by sequencing; higher = stronger binding; tyrosines were phosphorylated by kinases first. The note with it: peptide library: pTyr-Var.
As to CVRTIYTIDGS [DCLK2_Y124_G119C], the enrichment score is inactive: 0.743.

On to CASQLCPRHKH [DCTN4_Y263_Y263C], for which the enrichment score is inactive: 2.36.

With MENFIYESMRF [CYP19A1_Y361_YF], the enrichment score is inactive: 1.31.

VQNIVYRTASI [CYP39A1_Y102]: the enrichment score is inactive: 0.669.

Turning to EEGESYVCSSD [DCX_Y125], the enrichment score is inactive: 0.457.

Turning to IDPFTYTPFGS [CYP3A4_Y432_I431T_YF], the enrichment score was inactive: 1.08.

Take KVWGIYDCQQP [CYP3A7_Y75]: the enrichment score was inactive: 1.16.

As to GVRFTYTIDGS [DCX_Y105_I104T_YF], the enrichment score was inactive: 0.643.

In the case of RNGDRYFKGIV [DCX_Y64], the enrichment score is inactive: 0.819.

On to QSPQLYKQMCI [DARS1_Y253], for which the enrichment score was inactive: 0.652.

As for LSNPAYCLLLA [DDR1_Y513_R514C], the enrichment score is inactive: 0.756.

With RDGDRYFKGIV [DCX_Y64_N60D], the enrichment score was inactive: 0.973.

Regarding SRDPFYEMLAA [CYTH1_Y382], the enrichment score was inactive: 0.855.

Consider GFAGKYIAMVM [CYP19A1_Y441_C437Y_YF], for which the enrichment score is inactive: 0.879.

Consider FKEIVYAVSSD [DCX_Y70_G67E], for which the enrichment score was inactive: 1.43.

On to RTVPLYESLRK [DDB1_Y718_P721L], for which the enrichment score was inactive: 0.985.

In the case of TKFRNYLIPNG [CYP2C8_Y379_K383N], the enrichment score is inactive: 0.685.

As to VFLARYGPAWR [CYP2D6_Y124], the enrichment score is inactive: 0.445.

With GVRYTYTIDGS [DCX_Y105_I104T], the enrichment score is inactive: 0.939.

Another assay deals with SHP2 C-SH2 domain wild-type. The description is as above. The settings on record: peptide library: pTyr-Var.
CVRTIYTIDGS [DCLK2_Y124_G119C]: the enrichment score was inactive: 0.938.

Take CASQLCPRHKH [DCTN4_Y263_Y263C]: the enrichment score was active: 3.23.

Turning to MENFIYESMRF [CYP19A1_Y361_YF], the enrichment score was inactive: 1.33.

For VQNIVYRTASI [CYP39A1_Y102], the enrichment score was inactive: 0.73.

On to EEGESYVCSSD [DCX_Y125], for which the enrichment score was inactive: 0.721.

IDPFTYTPFGS [CYP3A4_Y432_I431T_YF]: the enrichment score is inactive: 0.648.

KVWGIYDCQQP [CYP3A7_Y75]: the enrichment score is inactive: 1.14.

Consider GVRFTYTIDGS [DCX_Y105_I104T_YF], for which the enrichment score is inactive: 0.733.

Turning to RNGDRYFKGIV [DCX_Y64], the enrichment score is inactive: 0.745.

Regarding QSPQLYKQMCI [DARS1_Y253], the enrichment score is inactive: 0.712.

Regarding LSNPAYCLLLA [DDR1_Y513_R514C], the enrichment score was inactive: 0.784.

For the molecule RDGDRYFKGIV [DCX_Y64_N60D], the enrichment score was inactive: 0.858.

Turning to SRDPFYEMLAA [CYTH1_Y382], the enrichment score is inactive: 0.658.

For the molecule GFAGKYIAMVM [CYP19A1_Y441_C437Y_YF], the enrichment score is inactive: 0.821.

Regarding FKEIVYAVSSD [DCX_Y70_G67E], the enrichment score is inactive: 0.938.

Consider RTVPLYESLRK [DDB1_Y718_P721L], for which the enrichment score is inactive: 0.781.

With TKFRNYLIPNG [CYP2C8_Y379_K383N], the enrichment score was inactive: 0.662.

As for VFLARYGPAWR [CYP2D6_Y124], the enrichment score was inactive: 0.502.

GVRYTYTIDGS [DCX_Y105_I104T]: the enrichment score was inactive: 2.38.

For another assay, the target named is SHP2 N-SH2 domain L43F. The assay is described as above. The note with it: peptide library: pTyr-Var.
In the case of CVRTIYTIDGS [DCLK2_Y124_G119C], the enrichment score is inactive: 0.838.

Turning to CASQLCPRHKH [DCTN4_Y263_Y263C], the enrichment score was inactive: 2.49.

With MENFIYESMRF [CYP19A1_Y361_YF], the enrichment score is inactive: 1.33.

In the case of VQNIVYRTASI [CYP39A1_Y102], the enrichment score was inactive: 0.717.

Turning to EEGESYVCSSD [DCX_Y125], the enrichment score was inactive: 0.58.

With IDPFTYTPFGS [CYP3A4_Y432_I431T_YF], the enrichment score is inactive: 0.842.

Regarding KVWGIYDCQQP [CYP3A7_Y75], the enrichment score was inactive: 1.14.

Turning to GVRFTYTIDGS [DCX_Y105_I104T_YF], the enrichment score is inactive: 0.707.

Turning to RNGDRYFKGIV [DCX_Y64], the enrichment score was inactive: 0.65.

As to QSPQLYKQMCI [DARS1_Y253], the enrichment score was inactive: 0.504.

Consider LSNPAYCLLLA [DDR1_Y513_R514C], for which the enrichment score was inactive: 0.722.

Regarding RDGDRYFKGIV [DCX_Y64_N60D], the enrichment score was inactive: 0.758.

In the case of SRDPFYEMLAA [CYTH1_Y382], the enrichment score is inactive: 0.747.

As to GFAGKYIAMVM [CYP19A1_Y441_C437Y_YF], the enrichment score was inactive: 0.818.

For FKEIVYAVSSD [DCX_Y70_G67E], the enrichment score is inactive: 1.17.

With RTVPLYESLRK [DDB1_Y718_P721L], the enrichment score was inactive: 0.76.

In the case of TKFRNYLIPNG [CYP2C8_Y379_K383N], the enrichment score was inactive: 0.766.

VFLARYGPAWR [CYP2D6_Y124]: the enrichment score was inactive: 0.434.

As for GVRYTYTIDGS [DCX_Y105_I104T], the enrichment score was inactive: 0.863.

The target in another assay is SHP2 N-SH2 domain T42A. The description is as above. The settings on record: peptide library: pTyr-Var.
Regarding CVRTIYTIDGS [DCLK2_Y124_G119C], the enrichment score is inactive: 0.616.

Consider CASQLCPRHKH [DCTN4_Y263_Y263C], for which the enrichment score was inactive: 2.22.

As to MENFIYESMRF [CYP19A1_Y361_YF], the enrichment score is inactive: 1.23.

Turning to VQNIVYRTASI [CYP39A1_Y102], the enrichment score is inactive: 0.605.

Take EEGESYVCSSD [DCX_Y125]: the enrichment score is inactive: 0.522.

Take IDPFTYTPFGS [CYP3A4_Y432_I431T_YF]: the enrichment score was inactive: 0.851.

For the molecule KVWGIYDCQQP [CYP3A7_Y75], the enrichment score is inactive: 1.2.

With GVRFTYTIDGS [DCX_Y105_I104T_YF], the enrichment score is inactive: 0.876.

For RNGDRYFKGIV [DCX_Y64], the enrichment score is inactive: 0.7.

Take QSPQLYKQMCI [DARS1_Y253]: the enrichment score is inactive: 0.612.

Consider LSNPAYCLLLA [DDR1_Y513_R514C], for which the enrichment score was inactive: 0.581.

For the molecule RDGDRYFKGIV [DCX_Y64_N60D], the enrichment score was inactive: 0.831.

For SRDPFYEMLAA [CYTH1_Y382], the enrichment score is inactive: 0.689.

Turning to GFAGKYIAMVM [CYP19A1_Y441_C437Y_YF], the enrichment score was inactive: 0.787.

As for FKEIVYAVSSD [DCX_Y70_G67E], the enrichment score is inactive: 1.02.

As for RTVPLYESLRK [DDB1_Y718_P721L], the enrichment score was inactive: 0.719.

For the molecule TKFRNYLIPNG [CYP2C8_Y379_K383N], the enrichment score is inactive: 0.75.

For VFLARYGPAWR [CYP2D6_Y124], the enrichment score was inactive: 0.398.

Turning to GVRYTYTIDGS [DCX_Y105_I104T], the enrichment score is inactive: 2.72.

A further assay has as its target SHP2 N-SH2 domain T52S. The description is as above. The settings on record: peptide library: pTyr-Var.
Regarding CVRTIYTIDGS [DCLK2_Y124_G119C], the enrichment score is inactive: 0.683.

For CASQLCPRHKH [DCTN4_Y263_Y263C], the enrichment score was inactive: 2.5.

Take MENFIYESMRF [CYP19A1_Y361_YF]: the enrichment score was inactive: 1.39.

Take VQNIVYRTASI [CYP39A1_Y102]: the enrichment score was inactive: 0.777.

Regarding EEGESYVCSSD [DCX_Y125], the enrichment score was inactive: 0.54.

As to IDPFTYTPFGS [CYP3A4_Y432_I431T_YF], the enrichment score is inactive: 0.886.

On to KVWGIYDCQQP [CYP3A7_Y75], for which the enrichment score was inactive: 1.04.

As for GVRFTYTIDGS [DCX_Y105_I104T_YF], the enrichment score was inactive: 0.818.

RNGDRYFKGIV [DCX_Y64]: the enrichment score is inactive: 0.665.

In the case of QSPQLYKQMCI [DARS1_Y253], the enrichment score is inactive: 0.473.

As for LSNPAYCLLLA [DDR1_Y513_R514C], the enrichment score was inactive: 0.627.

Turning to RDGDRYFKGIV [DCX_Y64_N60D], the enrichment score is inactive: 0.887.

For SRDPFYEMLAA [CYTH1_Y382], the enrichment score is inactive: 0.798.

Take GFAGKYIAMVM [CYP19A1_Y441_C437Y_YF]: the enrichment score is inactive: 1.06.

For FKEIVYAVSSD [DCX_Y70_G67E], the enrichment score was inactive: 1.46.

RTVPLYESLRK [DDB1_Y718_P721L]: the enrichment score was inactive: 0.651.

Take TKFRNYLIPNG [CYP2C8_Y379_K383N]: the enrichment score was inactive: 0.703.

As for VFLARYGPAWR [CYP2D6_Y124], the enrichment score was inactive: 0.535.

Regarding GVRYTYTIDGS [DCX_Y105_I104T], the enrichment score is inactive: 0.995.

A further assay has as its target SHP2 N-SH2 domain wild-type. Described as above. The note with it: peptide library: pTyr-Var.
Regarding CVRTIYTIDGS [DCLK2_Y124_G119C], the enrichment score was inactive: 0.917.

As to CASQLCPRHKH [DCTN4_Y263_Y263C], the enrichment score is inactive: 2.12.

For MENFIYESMRF [CYP19A1_Y361_YF], the enrichment score was inactive: 1.37.

Regarding VQNIVYRTASI [CYP39A1_Y102], the enrichment score is inactive: 0.797.

As to EEGESYVCSSD [DCX_Y125], the enrichment score is inactive: 0.583.

Take IDPFTYTPFGS [CYP3A4_Y432_I431T_YF]: the enrichment score was inactive: 1.03.

On to KVWGIYDCQQP [CYP3A7_Y75], for which the enrichment score is inactive: 1.55.

As to GVRFTYTIDGS [DCX_Y105_I104T_YF], the enrichment score is inactive: 0.871.

As for RNGDRYFKGIV [DCX_Y64], the enrichment score was inactive: 0.865.

Turning to QSPQLYKQMCI [DARS1_Y253], the enrichment score is inactive: 1.02.

As to LSNPAYCLLLA [DDR1_Y513_R514C], the enrichment score was inactive: 0.872.

As for RDGDRYFKGIV [DCX_Y64_N60D], the enrichment score was inactive: 0.815.

With SRDPFYEMLAA [CYTH1_Y382], the enrichment score is inactive: 0.868.

As to GFAGKYIAMVM [CYP19A1_Y441_C437Y_YF], the enrichment score is inactive: 1.65.

Regarding FKEIVYAVSSD [DCX_Y70_G67E], the enrichment score was inactive: 1.12.

For the molecule RTVPLYESLRK [DDB1_Y718_P721L], the enrichment score was inactive: 1.03.

Turning to TKFRNYLIPNG [CYP2C8_Y379_K383N], the enrichment score was inactive: 0.746.

As to VFLARYGPAWR [CYP2D6_Y124], the enrichment score is inactive: 0.483.

Turning to GVRYTYTIDGS [DCX_Y105_I104T], the enrichment score was inactive: 0.771.
